Consider 153 variants from a collection of fitness landscapes (doi:10.1126/science.1257360).

The chains are these.
B1: PhoQ; a variant is named by its letters at X, in order, P23837 (parent)
chain: MKKLLRLFFPLSLRVRFLLATAAVVLVLSLAYGMVALIGYSVSFDKTTFRLLRGESNLFYTLAKWENNKLHVELPENIDKQSPTMTLIYDENGQLLWAQRDVPWLMKMIQPDWLKSNGFHEIEADVNDTSLLLSGDHSIQQQLQEVREDDDDAEMTHSVAVNVYPATSRMPKLTIVVVDTIPVELKSSYMVWSWFIYVLSANLLLVIPLLWVAAWWSLRPIEALAKEVRELEEHNRELLNPATTRELTSLVRNLNRLLKSERERYDKYRTTLTDLTHSLKTPLXXLQXXLRSLRSEKMSVSDAEPVMLEQISRISQQIGYYLHRASMRGGTLLSRELHPVAPLLDNLTSALNKVYQRKGVNISLDISPEISFVGEQNDFVEVMGNVLDNACKYCLEFVEISARQTDEHLYIVVEDDGPGIPLSKREVIFDRGQRVDTLRPGQGVGLAVAREITEQYEGKIVAGESMLGGARMEVIFGRQHSAPKDE

The other results are listed elsewhere or left out.

Variants of B1 are the subject of the experiment. Put plainly: enrichment ratio after two sorts for PhoP signalling (ratio (wild type AVST 3.29)); higher = more functional. The following applies: with PhoP (E. coli).
Consider RYWF, for which the enrichment ratio is not above 0.25.

Consider GRVL, for which the enrichment ratio was not above 0.25.

For the variant SQCH, the enrichment ratio was 10.5. As to HNQI, the enrichment ratio is not above 0.25. Then FIWM, with not above 0.25; and SSMQ, with 11.5; and FRTY, with not above 0.25. The value for GRQF was not above 0.25; that for LPWQ was not above 0.25; that for TQEL was not above 0.25.

Regarding PMSV, the enrichment ratio was not above 0.25. Then IGQY, with not above 0.25. For QTRP, the enrichment ratio is not above 0.25.

As for ICHQ, the enrichment ratio was not above 0.25. On to YQLT, for which the enrichment ratio is not above 0.25. The value for TSTK was not above 0.25. The value for GLDL was not above 0.25. The value for NVQL was not above 0.25; that for VVMY was not above 0.25; that for WTFP was not above 0.25. Take RLRE: the enrichment ratio was not above 0.25. For HRIN, the enrichment ratio is not above 0.25.

Consider FWMH, for which the enrichment ratio was not above 0.25.

Consider HGGA, for which the enrichment ratio is not above 0.25. Then KPCH, with not above 0.25; and NGFN, with not above 0.25; and DVRK, with not above 0.25.

NIWS: the enrichment ratio was not above 0.25. Then LAWM, with not above 0.25; and NPMY, with not above 0.25; and PMAL, with not above 0.25.

For QQVQ, the enrichment ratio was not above 0.25. On to PLCP, for which the enrichment ratio is not above 0.25. The value for RRVL was not above 0.25; that for MFNI was not above 0.25; that for GFLK was not above 0.25.

As for ELVE, the enrichment ratio was not above 0.25.

As for HITT, the enrichment ratio was not above 0.25. The value for HRGS was 1.37; that for FVTE was not above 0.25; that for TGYW was not above 0.25. With LHNM, the enrichment ratio is not above 0.25. Then TDKL, with not above 0.25. In the case of SSSI, the enrichment ratio turned out to be 15.2. The value for YWQH was not above 0.25; that for WLGF was not above 0.25; that for MHGQ was not above 0.25. Then PKID, with not above 0.25; and ISGH, with not above 0.25; and DHIK, with not above 0.25. Then GYNH, with not above 0.25.

With VMGW, the enrichment ratio was not above 0.25. The value for TIHD was not above 0.25; that for LGMC was not above 0.25. The value for SFIL was not above 0.25. With SSWY, the enrichment ratio came to 0.557. As for NQMM, the enrichment ratio is not above 0.25. With WKQH, the enrichment ratio was not above 0.25. Then YHNI, with not above 0.25; and RQKY, with not above 0.25.

Turning to MHLD, the enrichment ratio is not above 0.25. Then ENLC, with not above 0.25. For the variant LWIF, the enrichment ratio was not above 0.25. Then LEHC, with not above 0.25; and NDLT, with not above 0.25. As for WEVF, the enrichment ratio is not above 0.25. Then KTKF, with not above 0.25; and MTAP, with not above 0.25; and GNNN, with not above 0.25. The value for NCVS was not above 0.25.

Turning to DWMW, the enrichment ratio is not above 0.25. On to HMIG, for which the enrichment ratio was not above 0.25. Then LGQS, with not above 0.25; and GYTN, with not above 0.25. The value for HNSV was not above 0.25. Then AQQP, with not above 0.25; and EMFE, with not above 0.25; and WTYM, with not above 0.25. On to KCMP, for which the enrichment ratio is not above 0.25. In the case of LTFG, the enrichment ratio was determined as 0.536. Turning to KHHG, the enrichment ratio was not above 0.25. Then HASY, with not above 0.25. Then FKEN, with not above 0.25.

Turning to HYSH, the enrichment ratio is not above 0.25. The value for DPAW was not above 0.25; that for LWRE was not above 0.25; that for MIWT was not above 0.25. Then IDQY, with not above 0.25. Then VCDC, with not above 0.25; and RSRI, with not above 0.25. Consider KKTQ, for which the enrichment ratio is not above 0.25. Then NIDV, with not above 0.25; and RDVQ, with 1.68. As to TAET, the enrichment ratio was not above 0.25. On to GSPW, for which the enrichment ratio was not above 0.25. As for QSRG, the enrichment ratio was not above 0.25. The value for ATGV was 5.3; that for IRMD was not above 0.25. The value for KQKL was not above 0.25; that for VFDD was not above 0.25. In the case of TSWN, the enrichment ratio worked out at 3.19. As to KYIE, the enrichment ratio was not above 0.25. The value for IYRS was not above 0.25; that for EVNG was not above 0.25; that for QIMS was not above 0.25.

As for FRIE, the enrichment ratio was not above 0.25.

On to AKWN, for which the enrichment ratio was not above 0.25. Then KLGL, with not above 0.25. Then FFKE, with not above 0.25; and YDYN, with not above 0.25; and FHYV, with not above 0.25. On to IVYI, for which the enrichment ratio was not above 0.25.

For NECK, the enrichment ratio is not above 0.25. The value for HQMT was not above 0.25. The value for DSGS was not above 0.25.

As for WFTS, the enrichment ratio is not above 0.25. For FHKV, the enrichment ratio was not above 0.25. Then DMNE, with not above 0.25; and AIPT, with not above 0.25; and WHIR, with not above 0.25. Then YAYI, with not above 0.25. Then SDCA, with 0.286. Take YKKH: the enrichment ratio is not above 0.25.

For the variant MVPY, the enrichment ratio is not above 0.25.

Turning to LCRL, the enrichment ratio is not above 0.25. Then IEFQ, with 1.29; and TAHP, with not above 0.25.

Turning to FPKA, the enrichment ratio is not above 0.25. Then EAAL, with not above 0.25. The value for RHII was not above 0.25. Then VSSG, with not above 0.25; and GGPW, with not above 0.25; and PYIL, with not above 0.25. On to DAPR, for which the enrichment ratio is not above 0.25. Consider QYNT, for which the enrichment ratio was not above 0.25. Then PIVA, with not above 0.25. The value for NLCF was not above 0.25; that for ETYG was not above 0.25. Then PIMK, with not above 0.25; and ALNY, with not above 0.25; and GTWM, with not above 0.25.

For the variant QHSE, the enrichment ratio was not above 0.25. The value for NTKT was not above 0.25; that for DLHQ was not above 0.25.

On to WAPY, for which the enrichment ratio is not above 0.25. Take YPWP: the enrichment ratio was not above 0.25. Then EIDR, with not above 0.25. Then PCTL, with not above 0.25. Consider FHMV, for which the enrichment ratio was not above 0.25. In the case of KNGC, the enrichment ratio is not above 0.25. Then TLGC, with 7.74. The value for EYHS was not above 0.25; that for KLYS was not above 0.25.
